The text below walks through data of PubChem BioAssay AID485344 (National Center for Advancing Translational Sciences (NCATS), 2010).

Hit rate of the full screen: of about 340,000 compounds, about 6,900 (2%) were called active. No stated cut-off is given here; in the data, active means inhibition above about 30%; inactive means below that, where a call was filed. This is a selection; strong and weak results do not stand in their true shares. Where no call is shown, the source filed none.

In the assay the target is D(2) dopamine receptor (Homo sapiens) (UniProt P14416). As to the kind of experiment: HTS Assay for Allosteric Antagonists of the Human D2 Dopamine Receptor: Primary Screen for Antagonists. Further: 0% is about no effect. To be noted: HEK293 TREx D2 cells, calcium flux, dopamine EC80; at 10 µM; stronger effect = higher value. An outline of the steps: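 Overnight-induced (tetracycline, 30 C) HEK293 T-REx cells carrying force-coupled D2 receive a no-wash calcium dye, then compound, then EC80 dopamine at 180 s; signals are read kinetically throughout.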
Sequence of UniProt P14416 (P14416 whole entry, looked up): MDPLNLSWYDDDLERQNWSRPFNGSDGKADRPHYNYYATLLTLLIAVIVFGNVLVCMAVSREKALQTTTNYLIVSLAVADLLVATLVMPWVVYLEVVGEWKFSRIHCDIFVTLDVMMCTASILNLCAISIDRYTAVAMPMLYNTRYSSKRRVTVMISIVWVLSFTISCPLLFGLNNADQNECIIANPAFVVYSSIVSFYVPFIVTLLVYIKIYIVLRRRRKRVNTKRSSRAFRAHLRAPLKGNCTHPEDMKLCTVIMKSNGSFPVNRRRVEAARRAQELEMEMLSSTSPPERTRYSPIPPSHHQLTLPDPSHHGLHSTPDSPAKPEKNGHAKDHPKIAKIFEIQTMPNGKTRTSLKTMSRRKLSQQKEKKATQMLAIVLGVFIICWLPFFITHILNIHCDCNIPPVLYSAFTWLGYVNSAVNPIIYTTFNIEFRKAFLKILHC
For orientation: Calcium flux is commonly read through the fluorescence of an indicator in the cells.
The term inhibition denotes the change of the read-out against control, counted positive when it falls. Regarding `Cc1ccc(C)n1-c1nnc(N2CCCC(C(=O)NCc3ccc(Cl)cc3)C2)s1` (stereo not given), the inhibition was -3.24%.

Take `COc1ccc(C2=CC(c3ccc(F)cc3)n3ncc(C(=O)Nc4ccc(C)cc4)c3N2)cc1` (stereo not given): the inhibition is -9.63%.

Turning to `Cc1ccc(CN2CCc3nc(N4CCN(c5ncccn5)CC4)ncc3C2)cc1`, the inhibition is -9.21%.

As to `COc1cccc(NC(=O)CSc2nc3c(oc4ccccc43)c(=O)n2Cc2ccco2)c1`, the inhibition is 15.4%.

As for `Cc1ccccc1CN1CCN(C(=O)c2ccco2)CC1`, the inhibition was active: 69.7%.

For the compound `O=C(CCSc1nc(-c2ccco2)cc(C(F)(F)F)n1)Nc1cccc(O)c1`, the inhibition worked out at 26.2%.

Regarding `Cc1cccc(NC(=O)NC(C)C(c2cccs2)N2CCOCC2)c1` (stereo not given), the inhibition was active: 30.3%.

Consider `Cc1ccc(N(CC(=O)NCCc2ccc(Cl)cc2)S(=O)(=O)N(C)C)cc1`, for which the inhibition was -0.662%.

With `CCc1ccc(NC(=O)CN2CCN(Cc3ccccc3)S2(=O)=O)cc1`, the inhibition is -28%.

Take `Cc1oc2c(c(C)cc3oc(=O)c(CC(=O)NCCc4ccccc4F)c(C)c32)c1C`: the inhibition is 7.4%.

As to `CCOC(=O)C1CCN(c2ncnc3c2c(-c2ccccc2)cn3-c2cccc(C)c2)CC1`, the inhibition is 5.8%.

For the compound `Cc1ccc(Cn2c(C(=O)O)c(CNCc3ccccc3Cl)c3ccc(C)cc32)cc1`, the inhibition was -15.4%.

Turning to `O=[N+]([O-])c1ccccc1OCCCNCc1ccccc1`, the inhibition is active: 37.6%.

Regarding `Cc1ccccc1-n1c(SCC(=O)Nc2ccc(Cl)cc2F)nnc1-c1cc2occc2n1C`, the inhibition is -1.12%.

Consider `Cc1cccc(NC(=O)CCCn2c(C)c3cnn(-c4ccccc4)c(=O)c3c2C)c1C`, for which the inhibition is -1.64%.

For the compound `Cc1nc(-c2ccc(Cl)cc2)sc1CCNC(=O)C(=O)Nc1ccc(F)cc1F`, the inhibition is -14.6%.

On to `O=C(CCc1nc2ccccc2c(=O)[nH]1)Nc1ccc(Cl)c(Cl)c1`, for which the inhibition was active: 54.3%.

Take `O=C(O)c1cc(NC2(c3ccccc3)C(=O)c3ccccc3C2=O)ccc1Cl`: the inhibition is -1.63%.

With `O=C(Cn1c(=O)oc2cc(S(=O)(=O)N3CCCCC3)ccc21)Nc1cccc(Cl)c1`, the inhibition was found to be 10.1%.

Take `Cc1ccccc1NC(=O)c1ccc(F)c(S(=O)(=O)N(C)Cc2ccccc2)c1`: the inhibition stood at 15%.

`CCc1ccc(NC(=O)c2cc(C(C)=O)n3ccccc23)cc1`: the inhibition turned out to be 12.2%.

Turning to `CC(C)c1ccc(C2N3CC4(C)CN2CC(c2ccccc2)(C3)C4=O)cc1` (stereo not given), the inhibition is 17.2%.

For `CCCc1nn2c(=O)cc(COC(=O)c3cccc(NC(=O)COc4ccc(F)cc4)c3)nc2s1`, the inhibition was determined as 1.92%.

For the compound `Clc1cccc(N2CCN(c3ncnc4c3nc3n4CCCCC3)CC2)c1`, the inhibition is -2.46%.

As for `CCOC(=O)c1scc(-c2ccccc2)c1S(=O)(=O)Nc1ccccc1F`, the inhibition is 22.9%.

Regarding `CCc1nn(-c2ccccc2)c2nc(-c3ccccc3OC)c3cc(OC)c(OC)cc3c12`, the inhibition was 16.5%.

In the case of `Oc1cc2c(cc1CN1CCN(c3cccc(C(F)(F)F)c3)CC1)CCC2`, the inhibition was active: 56.4%.

Take `CCOc1ccc(CCNC(=O)CCc2c(C)nc3c4c(C)cc(C)nc4nn3c2C)cc1`: the inhibition was 9.93%.

As for `Cc1cccc(C(=O)Nc2sc3c(c2C(=O)NCc2ccco2)CCCC3)c1`, the inhibition was determined as 18.4%.

In the case of `COc1cccc(NC(=O)NCc2ccc3c(c2)CCN3C(=O)c2ccccc2)c1`, the inhibition is -1.35%.

Turning to `CCCN1C(=O)c2[nH]nc(-c3ccccc3O)c2C1c1ccc(OCc2ccccc2)c(OCC)c1` (stereo not given), the inhibition came to 10.5%.

Take `COc1ccc(C)c2sc(N(Cc3cccnc3)C(C)=O)nc12`: the inhibition worked out at 4.51%.

As for `Cc1ccc(Cl)cc1NC(=O)CN1C(=O)c2cccc3cccc1c23`, the inhibition was 0.226%.

In the case of `CCc1ccc(NC(=O)C2CCC(CNS(=O)(=O)c3ccc4c(c3)CC(C)N4C(C)=O)CC2)cc1` (stereo not given), the inhibition stood at 11.6%.

`COc1ccccc1OCCn1c(NC(=O)c2ccc(Cl)cc2)nc2ccccc21`: the inhibition was -5.39%.

On to `COc1ccc(-c2nc3ccccc3s2)cc1NC(=O)COc1ccccc1C`, for which the inhibition stood at 19.2%.

Turning to `COc1ccc(CCNC(=O)c2ccc(Cn3c(=O)c4ccccc4n(Cc4cc(C)ccc4C)c3=O)cc2)cc1OC`, the inhibition is 4.36%.

With `Cc1ccc2oc(=O)c3cc(C(=O)Nc4ccc(F)cc4F)sc3c2c1`, the inhibition was found to be 13.9%.

Turning to `Cc1cc(C)c2nc(N3CCCC(C(=O)NCc4cccc(Br)c4)C3)sc2c1` (stereo not given), the inhibition was -0.966%.

In the case of `Fc1ccc(Nc2nc3ccccc3c3nncn23)c(Cl)c1`, the inhibition is -5.19%.

Take `CCOc1ccccc1N1CCN(C(=O)c2cc3c(s2)CCC3)CC1`: the inhibition is active: 35.3%.

Turning to `CCOC(=O)c1ccc(N2CCN(c3ccccc3F)CC2)c(NC(=O)Nc2ccc(Cl)c(Cl)c2)c1`, the inhibition was -14.4%.

With `Cc1ccc(NC(=O)c2oc3ccc(S(=O)(=O)N4CCCCCC4)cc3c2C)cc1Cl`, the inhibition worked out at 2.47%.

On to `CC(C)CSc1nnc(-c2ccccc2)c(-c2ccccc2)n1`, for which the inhibition amounted to 3.27%.

Consider `Fc1cccc(Cc2noc(CN3CCC(c4ccncc4)CC3)n2)c1`, for which the inhibition is active: 52.6%.

Take `CC(C)Oc1ccc(C(=O)Nc2ccc3c(c2)CCCN3C(=O)c2cccs2)cc1`: the inhibition was -5.2%.

Regarding `CCC1CCCCN1CCCNC(=O)CN1C(=O)c2cccnc2Oc2ccc(Cl)cc21` (stereo not given), the inhibition was 11.5%.

With `COc1ccc(Cn2c(CNC(=O)c3ccc(N(C)C)cc3)nc3cccnc32)cc1`, the inhibition is -10.3%.

On to `O=C(Cn1cc(SCc2ccc(C(F)(F)F)cc2)c2ccccc21)N1CCCCCC1`, for which the inhibition is -18.3%.

Turning to `Cc1nnc(NC(=O)CSc2nc3c([nH]c4ccccc43)c(=O)n2-c2ccccc2)s1`, the inhibition was 6.34%.

As to `O=C(Nc1c(C(=O)N2CCN(c3ccc(F)cc3)CC2)oc2ccccc12)c1c(F)cccc1F`, the inhibition was -0.779%.

With `Cc1cccc(N2CCN(CCCNC(=O)C3CCCN(c4ncnc5c4nc4n5CCCCC4)C3)CC2C)c1` (stereo not given), the inhibition is active: 55.7%.

Take `COc1ccc(C2CC(=O)c3cc(-c4nc(-c5cccc([N+](=O)[O-])c5)cs4)c(=O)n(-c4ccc(C)c(C)c4)c3C2)cc1` (stereo not given): the inhibition is -16.5%.

Regarding `Cc1nn(C(C)C(=O)NC2CCCCC2)c(=O)c2c1sc1ccccc12` (stereo not given), the inhibition came to 20.5%.

On to `Cc1ccc(-c2nnc(Nc3ccc(Br)cc3)c3ccccc23)cc1S(=O)(=O)N1CCN(C)CC1`, for which the inhibition was -26.7%.

Consider `COc1ccc(CC(=O)NC2CC(=O)N(c3cccc(F)c3)C2)cc1` (stereo not given), for which the inhibition is -6.18%.

Take `COc1ccc(CCNC(=O)Cc2c(C)c3c(cc(C)c4c(C)coc43)oc2=O)cc1OC`: the inhibition was -5.97%.

`Cc1ccc(OCC(=O)Nc2ccc(OCc3cc(=O)n4cccc(C)c4n3)cc2)cc1C`: the inhibition worked out at 10%.

In the case of `CCN(C(=O)C(=O)Nc1ccc2nc3n(c(=O)c2c1)CCCCC3)c1ccc(F)cc1`, the inhibition worked out at 3.77%.

In the case of `COc1ccc2c(CNCc3ccc(C)o3)c(C(=O)O)n(Cc3ccccc3C)c2c1`, the inhibition was -0.977%.

`CCN(c1ccccc1)C(CNS(=O)(=O)c1ccccc1)c1ccccc1` (stereo not given): the inhibition turned out to be 11.2%.

On to `COc1ccc(CCNC(=O)c2ccc3c(c2)CCN3S(C)(=O)=O)cc1`, for which the inhibition is -19.1%.

In the case of `Cc1c(C(=O)N(Cc2ccc(N(C)C)cc2)C2CCS(=O)(=O)C2)oc2ccccc12` (stereo not given), the inhibition was 13.8%.

As for `COc1cc(C(=O)CC2(O)C(=O)N(Cc3ccccc3Cl)c3ccccc32)cc(OC)c1OC` (stereo not given), the inhibition is -4.11%.

With `Cc1ccc2sc(N(Cc3cccnc3)C(=O)CCOc3ccccc3)nc2c1C`, the inhibition stood at 23.3%.

Turning to `Clc1ccc(OCCOCCN2CCc3ccccc3C2)c(Cl)c1`, the inhibition is active: 64.4%.

Turning to `COc1ccc(OC)c(C2NC(=O)NC(C)=C2C(=O)Nc2cc(C)cc(C)c2)c1` (stereo not given), the inhibition was -3.32%.

As to `O=C(c1ccc2c(c1)N(Cc1ccccc1)C(=O)c1ccccc1S2(=O)=O)N1CCN(c2ccccc2)CC1`, the inhibition is -2.22%.

As to `C=CCNC(=S)NNC(=O)C(CCC(C)C)CC(C)O` (stereo not given), the inhibition was active: 45.4%.

Turning to `CCOC(=O)C1(C)C=C(Nc2ccc(Br)cc2)C(=O)N1c1ccccc1` (stereo not given), the inhibition turned out to be 28.2%.

Consider `CCn1c(=NC(=O)c2ccc3c(c2)OCCO3)sc2c(C)ccc(OC)c21`, for which the inhibition was -8.36%.

For `Cc1ccc(NC(=O)CSc2nc(C)c(Cc3ccccc3)c(=O)[nH]2)cc1C`, the inhibition was 0.975%.

For `Cc1ccc(C(=O)c2oc3ccccc3c2NC(=O)Cc2coc3cc(C)ccc23)cc1`, the inhibition is 2.03%.

For the compound `COc1ccc(Cn2nnc3c(=O)[nH]c(C4CCCN(C(=O)c5ccc(C)cc5)C4)nc32)cc1` (stereo not given), the inhibition was -3.55%.

On to `COc1ccc(CCNC(=O)Cn2c(=O)n(-c3ccc(C)c(C)c3)c(=O)c3c(C)c(C)sc32)cc1OC`, for which the inhibition came out at 17.1%.

Consider `CCCCc1ccc(NC(=O)Cn2nnc3sc4c(c3c2=O)CCC(C)C4)cc1` (stereo not given), for which the inhibition was found to be 22.4%.

`CCc1ccccc1NC(=O)Cn1ccn(-c2cc(C)cc(C)c2)c(=O)c1=O`: the inhibition was -27.4%.

In the case of `COc1ccc(NC(=O)c2ccc3oc(=O)c(S(=O)(=O)c4ccc(C)cc4)cc3c2)cc1OC`, the inhibition came to 1.48%.

For the compound `Cc1nn(S(=O)(=O)c2ccccc2)c(C)c1S(=O)(=O)N1CCC(C)CC1`, the inhibition was -17.4%.

As to `COc1ccc(OC)c(C(=O)c2c(N)c(-c3nc(-c4ccc(C)c(C)c4)cs3)c3ccccn23)c1`, the inhibition is -0.833%.

For `Clc1cccc(CSc2nncn3c2cc2sccc23)c1`, the inhibition was -11.4%.

Regarding `Cc1ccccc1-c1nc(CS(=O)CC(=O)N2CCN(c3cc(Cl)ccc3C)CC2)c(C)o1` (stereo not given), the inhibition came to 0.552%.

`CCC(=O)N1c2ccccc2CC1C(=O)NCc1cccc(C)c1` (stereo not given): the inhibition is -9.27%.

Turning to `CCN(CC)CCCNC(=O)Cn1nc(C)n2c(cc3sccc32)c1=O`, the inhibition turned out to be 8.3%.

As to `COc1ccc(-c2noc(-c3ccc(N4CCN(c5ccc(OC)cc5)CC4)c([N+](=O)[O-])c3)n2)cc1`, the inhibition is -10%.

Take `COc1cccc(N2CCN(C(=O)c3cc4c(=O)n(Cc5ccccc5)ccc4nc3C)CC2)c1`: the inhibition turned out to be 13.3%.

As for `Cc1cccn2c(=O)c(C(=O)NCc3ccccc3Cl)c(O)nc12`, the inhibition came to 5.23%.

For `COc1cc(C)ccc1OCCCn1c(-c2ccc(Cl)cc2)nc2ccccc2c1=O`, the inhibition was -8.45%.

For `CC(C)S(=O)(=O)c1oc(-c2ccc(F)cc2)nc1S(=O)(=O)c1ccccc1`, the inhibition is -5.69%.

In the case of `CN1CCN(c2oc(/C=C/c3ccc(F)cc3)nc2C#N)CC1`, the inhibition is -14.5%.

Consider `Cc1cccc(-n2c(SCc3nc(-c4ccccc4C)no3)nnc2-c2ccccc2)c1`, for which the inhibition was found to be 12.3%.

Regarding `CCOC(=O)c1ccccc1NS(=O)(=O)c1ccc(N2CCCCS2(=O)=O)cc1`, the inhibition is -11.8%.

Turning to `COc1cc(NC(=O)c2nn(-c3ccc(C)cc3)c(=O)c3c2c2ccccc2n3C)cc(OC)c1OC`, the inhibition came out at 1.19%.

With `CCc1nn(CC(=O)NC(C)CC)c(=O)c2cc3c(OC)cccc3n12` (stereo not given), the inhibition is -11.7%.

Consider `Cc1cc(C(F)(F)F)nn1-c1nc(-c2ccccc2)cc(C(F)(F)F)n1`, for which the inhibition was -13%.
